Whole data set: some 33,000 sequences, median “E-score (-0.5 to 0.5)” near -0.041, cut for the highest 2% near 0.37. Some of the results follow.
Target: T1, Ecm22 (UniProt Q05958)
T1 sequence: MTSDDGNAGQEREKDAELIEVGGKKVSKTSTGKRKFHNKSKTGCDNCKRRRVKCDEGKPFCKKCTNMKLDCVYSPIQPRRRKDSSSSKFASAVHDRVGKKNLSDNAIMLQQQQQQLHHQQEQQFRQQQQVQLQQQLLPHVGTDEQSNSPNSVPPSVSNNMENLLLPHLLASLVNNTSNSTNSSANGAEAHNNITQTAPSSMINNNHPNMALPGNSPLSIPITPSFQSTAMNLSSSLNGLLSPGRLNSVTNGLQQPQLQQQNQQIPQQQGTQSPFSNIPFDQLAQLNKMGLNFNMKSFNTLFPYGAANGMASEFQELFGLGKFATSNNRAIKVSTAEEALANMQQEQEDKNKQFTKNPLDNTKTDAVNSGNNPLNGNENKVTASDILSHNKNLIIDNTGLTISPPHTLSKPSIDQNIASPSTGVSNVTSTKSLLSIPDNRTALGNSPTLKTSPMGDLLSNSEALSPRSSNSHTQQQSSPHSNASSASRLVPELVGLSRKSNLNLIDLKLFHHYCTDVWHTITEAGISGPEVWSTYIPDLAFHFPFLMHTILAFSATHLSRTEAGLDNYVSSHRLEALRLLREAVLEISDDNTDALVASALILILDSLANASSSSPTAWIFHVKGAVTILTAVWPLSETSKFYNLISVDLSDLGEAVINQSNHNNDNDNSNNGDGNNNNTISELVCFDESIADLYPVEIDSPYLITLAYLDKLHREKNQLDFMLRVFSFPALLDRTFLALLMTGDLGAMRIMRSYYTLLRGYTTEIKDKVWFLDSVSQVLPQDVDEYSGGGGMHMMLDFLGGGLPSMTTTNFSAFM
Experiment: PBM E-score (8-mer binding enrichment) (E-score (-0.5 to 0.5)); higher = stronger / more preferred TF binding; most listed sequences are background and not binding sites
Conditions: protein concentration: 200 nM; construct: GST-full length
Method in brief: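 Masliner-normalised scans of fluorescent anti-GST signal were the basis for scoring. That signal came from GST-tagged yeast transcription factors applied at about 100-200 nM to double-stranded universal all-10-mer Agilent arrays on fresh or once-stripped slides. Each ungapped eight-base word, pooled with its reverse complement, received an E-score from the Universal PBM Analysis Suite.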

Sequence	PBM E-score
ACCGTTAA	0.246
ACGGAAAC	0.275
CATATACG	0.445
ACCTGGCC	-0.122
CGAGTGCC	0.00958
ATTTATCG	0.164
CCTGGGCG	-0.152
GGAGCTCC	-0.395
AACAAGGA	0.00298
GGTCGGCA	0.0143
ACATCTTC	-0.038
AAGAGGCT	-0.268
TCCCTAGA	-0.176
GATCGCGC	0.169
CGTTCATA	0.386
CAACCTGA	-0.064
CATGCCGC	0.0956
CACGATAA	0.00212
AGGTAAAC	0.233
AGCTCTAT	-0.113
CGTGCAAG	0.0627
CATATCCG	0.14
GAATCCAC	-0.00795
CAACGTGC	0.0429
AGCACCAT	-0.122

Sequence	PBM E-score
CTCCGTCC	-0.139
ATATAGCG	0.0942
GACAGCGA	0.0982
CTTAATTC	-0.0174
GGATCACC	-0.117
GTACGACA	0.48
ATCACCCA	-0.0985
GGTTATTA	0.118
GGAATCCC	-0.15
ACCTATTG	-0.0272
GCGGCTCC	-0.189
AGCACCCG	0.0738
CCGTGGCA	-0.136
CGCTTAGC	0.27
ACGAATAT	0.285
GGGGCTTA	-0.3
AGGGACAC	-0.0536
CAGTCTGC	-0.111
ACTTTAGA	-0.118
AGCGACGC	0.183
AAACACCG	0.14
ACGATAGC	0.311
ACTTCACG	-0.0496
ACGCATTC	-0.0053
CACAGATA	-0.15

Sequence	PBM E-score
AATTCCGC	0.0231
AAAAGCAT	0.0251
ATGACCAC	-0.145
GTGCGGAA	0.0503
GATTCAAC	0.0303
GGACCATA	0.0222
GAGTTCGC	0.105
AGTGTATA	-0.0259
CAATCTAA	0.0234
GCTAGTAA	-0.0786
ACTCCAGG	-0.118
AGGTTCAC	0.0703
AGCGAGCT	0.309
CGCGTGAG	0.131
AAACTACT	-0.105
GACCGGTA	-0.173
GAGGAGCC	-0.0571
CCTAGCCC	-0.222
AAAGATGT	-0.0546
CGTTGATC	0.156
CACAGGCA	-0.0554
AACGGAGA	0.18
ATATCGCG	0.302
CATTCACC	0.0401
CGTGCGTC	0.151

Sequence	PBM E-score
GGCAGTCA	-0.0846
CAAGGCTG	-0.201
CCTAAAAG	-0.201
CAGGAAAG	-0.218
GGTAACTA	0.0246
CGGCCGGC	-0.0878
AACGTACA	0.204
ACTGTGGC	-0.169
ACGCGTGA	0.144
AGCTGTCA	-0.0437
AACGGCTC	0.261
CGCCTTAG	-0.19
CTCCACTC	-0.162
CGTTCGGA	0.274
CACAGGGA	-0.153
CAGAAACC	-0.0626
AACGCCCA	-0.0846
CAGCCAAA	-0.0517
CGCTTTCC	-0.0734
AAGTGGTG	-0.0137
CCGAGTCG	0.163
AACCTGCG	-0.0141
TAACGGCA	0.0107
ACTCATGC	-0.0706
ACTCTTAA	-0.106

Sequence	PBM E-score
ACACTCAC	-0.0142
GACTGGCC	-0.0693
CCACGTGC	-0.0322
AAGACTAC	-0.102
GCATCAAA	-0.162
ATAGACTA	-0.0832
CCCACTAC	-0.161
AAGCAAGT	-0.117
CATCTACA	-0.0749
ATCCAAGC	-0.231
AACACGGG	0.186
GGGTCATA	-0.102
CCGTAAGC	0.142
ACAAATCC	-0.159
GTGGTCGA	-0.0123
AGACGCAC	-0.0323
AGATCCTA	-0.0686
GGCGGCTA	-0.214
CCTCGCCA	-0.0542
TTCGAGAA	0.149
ACCCACGC	-0.108
CACCTTGA	-0.181
CCACGTGG	-0.0279
GCCAGTAC	-0.094
CTAGGGGC	-0.368

Sequence	PBM E-score
CTTAAACA	-0.0983
CTAGACTA	-0.134
GACTGGAC	-0.193
ACTACTGG	-0.38
ATCGAGGG	-0.0104
CTGTCAGC	-0.203
CGCAACCC	-0.00304
CGAATGCC	0.00653
CCTCATCG	0.125
ATGCCGCG	0.144
CTTTAGTC	-0.289
GAGGTAGA	-0.0207
ATCAGGCG	-0.158
AACCCTTG	-0.0616
ATAACCGC	0.0506
AATGCACA	0.0613
CATCGGAA	0.181
AGCTAATA	0.0246
ACAGGTCT	0.00866
CATAAACA	-0.0236
GTGGAAAC	-0.14
CTAGGTTA	-0.181
GAGTACAC	0.13
CGTTTAGC	0.464
ATTAGCGG	-0.13

Sequence	PBM E-score
AAATTGAG	-0.152
CCGAGCCC	0.0573
CGCCGGTC	-0.0658
ATAGTTAA	0.0332
GATTGTGA	-0.0615
GTTGAGCA	-0.0718
GAAAGGAC	0.0471
GACAGCTC	-0.036
TACTCTCA	-0.0803
CGAAGCGC	0.0347
GACAGGCC	-0.206
GCGGCAGA	-0.171
CGAAAGGC	0.0855
AGTTTGCC	-0.117
AAAATTGA	-0.0823
CCCTACCA	-0.0939
CTACTGTA	0.0808
TGGTCTAA	-0.187
AGTTCGCA	0.221
ATCGCGAC	0.151
AACCGCAT	0.0581
CCCAACGG	-0.207
